Source: the supplement of paper PMC10126150
Sequences with one replicate were seen in a single cluster, so their values are uncertain.

System: ATP
Assay: switch fluorescence ratio, 500 uM ATP over buffer (Cy3 cluster intensity, sum of 5 cycles each) (fold (ratio)); higher = stronger signal-on switching upon ATP binding; sequences stand for … in TCGTCGGCAGCGTCAGATGTGTATAAGAGACAGTTTTTTTTTTTTTTTTTTTTTTTTT…TC
Conditions: aptamer strand: ATP DNA aptamer (quencher-CACCTGGGGGAGTATTGCGGAGGAAGG + anchor), 100 nM annealed; ATP concentration: 500 uM; one replicate
Method in brief: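 Per cluster, summed Cy3 intensity from the target cycles was divided by that from the buffer cycles to give the fluorescence ratio, then averaged per switch-domain sequence. Clusters outside 100-1000 RFU were excluded. The Cy3-labelled switching-strand clusters, on a modified Illumina MiSeq flow-cell, were annealed to 100 nM quencher-labelled ATP aptamer and imaged in selection buffer, then after 15 min with 500 uM ATP at 22 °C, for five cycles with NaOH stripping and re-annealing between them.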
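Further: ATP exposure 15 min at 22 °C before imaging.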

Sequence | switch fluorescence ratio
CACATGCACT | 1.13
CGATCTTTTT | 0.975
CACGTGGGGC | 1.01
GGGTACGTTA | 1.12
GGGAACGACT | 0.967
GAATCCATAA | 0.987
TACACTGGCA | 1.04
TCCGCTCGGA | 0.991
AATGCAAACC | 1.16
TTTCTAACTA | 1.01
AATTAAATTG | 0.96
TGTCATGCCC | 1
CACTGTCCTG | 1.04
ACATAACCGG | 1.06
CGGTCCTGTG | 0.975
ATAATTAGAC | 1
CCCTCTGTTA | 1.02
AGTCCCTAAG | 0.999
CGGGTTATGA | 1.01
TTTGACTGAA | 1.03
TCAGATGAGC | 1.05
TTTTCAAGG | 1.01
GCAGAATCTG | 0.966

Sequence | switch fluorescence ratio
CTATGGGGG | 0.997
CAGTTCTTAG | 0.99
AAAAAAGTCT | 0.972
GTGGAACCTA | 0.979
TTAGACGGTA | 1.11
GTGTAAGCGA | 1.01
TTATGAGCTA | 1.01
AGTTTTACA | 0.988
CGGATATGA | 0.986
TGGTTCTTGT | 0.938
TGTGATTAGA | 1.01
GGTCTCTGTC | 0.972
CTGAAGGCTC | 1.14
TTGGCTCTTA | 0.988
CGCACAATTT | 1.06
ATGCACGGTC | 1.02
TCCGCTTCGG | 1.02
GCGTGATAGC | 1.01
ATGTAGAATG | 1
TCGGAAGTGT | 0.97
ATTTAACTGG | 1.03
CTAGGTATAA | 1.04
GCATAACTGC | 1.07

Sequence | switch fluorescence ratio
AGACGGATGG | 1.01
CTAAAGTTAC | 1.19
AATGCGGTGT | 1.05
CAGGTTTATT | 0.968
CAGAGAAAAG | 0.973
GCCTGAAGTT | 1.01
ATCATTTGG | 1.01
GGTTCTGATT | 0.949
ACTGCGGAT | 1.01
AGAACTTCAT | 1.04
CTGTAGACAG | 1.03
GGATACGGG | 1.02
GGTGTGATAG | 1
ACCGTAGTGC | 1.71
ACGCTTTTCG | 0.985
TTACGCCTGG | 1.66
GATCCTATTC | 1.04
ATATATTATT | 0.989
TCACTATGCG | 0.986
CGTTTTCCGT | 0.995
AAGGTGGAGA | 1.02
CTATTCTGAC | 1.01
TTGCGTTGGA | 1.03

Sequence | switch fluorescence ratio
TTCATATAAA | 0.979
GGGATCGGCC | 1.03
TAAGGCATC | 0.994
TAGCCCACT | 1.03
TCGGACTCCG | 1.07
GGTTGGTATA | 1.05
ATGTTCACCG | 1
CGGCCAATTC | 1.16
GCTGCATGCG | 1.03
CTTCTCTGGT | 0.958
CGTCAGGGGT | 1.12
CCAGGCTTGC | 1.09
AATATAAGGG | 1.04
TTATGTACGC | 1.04
GCCTTTGAGA | 0.99
GACGATGGGG | 1.03
TTCATCCGCG | 3.21
AATTGGACTT | 1.01
GTTATTCCTG | 1.04
AGACCACAGG | 1.09
TAATATGTCT | 1.04
CCCAAGATCT | 1.05
AATACCCTCT | 1.09

Sequence | switch fluorescence ratio
CGATTCAAAG | 1.01
GTCATTATGT | 0.975
GCACATACGT | 1.74
AATTCACAA | 1.04
CTCAGTTGGG | 0.985
GTGTGACAAT | 0.997
AGTGTCCTCT | 1.02
ATGCTCTCGT | 1.02
TCAAGAAGTC | 0.951
GCGCGAATTG | 0.959
ATCCGTCCCG | 1.02
TTGAGAACGG | 1
ATCAGACCTC | 1.01
AATGTGGCGG | 0.997
TTGCACGC | 1.05
CGAGACATGT | 1
TGTCTGGTCA | 1
TTCTGCAGG | 1.11
CCTTGTACGA | 1.09
GGTTACCGGG | 1.01
ATAAAATGAT | 1.02
AGTTCAGTCT | 1.02
GATATGTTAT | 0.964

Sequence | switch fluorescence ratio
CACAGAGTGC | 1.11
GGTCACTCAT | 0.963
TAGGGTTTCC | 1.02
TCAAGGTTCC | 1.06
ACACCCCAGA | 1.35
TTTTGAATAT | 1
CAATACTGGT | 1.04
CTTAGGCGTG | 1.03
TCATCATCAT | 1
TGACTTGCTG | 0.995
CCCGAAGATG | 1.07
TGATTGCGGC | 1.04
TAGGTATGGT | 0.996
CCATTTGTAC | 1.13
ACGGTAATCG | 0.999
AGAGCCCGTC | 1.01
GAGAAATGAG | 1.01
GTCGTTCGAC | 0.97
CTGAGGGGCA | 1.01
TTGGTGCACG | 0.973
CTCTACAACT | 1.03
CAATTGGGAT | 1.02
CAATACGGAT | 1.05

Sequence | switch fluorescence ratio
AAATACAAAG | 1
CCATGTAGCC | 1.08
TGCAGTGAAC | 0.994
GACGTGATAG | 1.76
TCGTATCGAT | 0.985
GTTGCTCTCC | 1.09
GCCCAAAGGG | 0.998
AGATTTTGGG | 1.02
GTAATACTTA | 1.12
ATAAAATCTG | 0.954
AGAGGTTTTC | 0.992
TAGGTTACCG | 1.01
ACATGTCAGG | 1.05
AAAAGTGGTA | 1.05
GTGCAGTGAG | 0.997
ATTTCATTGC | 0.99
GGACACACCC | 1.4
TGGGTTCAGT | 0.992
GAACCACGGG | 1.07
